Measurements taken from US20100003244A1 (TRIGEN, published 2010).

Target: T1, collagen (type I bovine; BD Bioscience) (bovine, UniProt P02453 162-1217; P02465 80-1117)
T1 construct: Legends that say only immobilized collagen or collagen type 1 for these ELISAs are tied to this molecule; also called immobilized collagen; bovine type I collagen
Test: ELISA on plates coated with bovine collagen I, detection with peroxidase-labelled secondary antibody against the Fc part

Chain of UniProt P02453 (P02453 162-1217, chain 1 of 2): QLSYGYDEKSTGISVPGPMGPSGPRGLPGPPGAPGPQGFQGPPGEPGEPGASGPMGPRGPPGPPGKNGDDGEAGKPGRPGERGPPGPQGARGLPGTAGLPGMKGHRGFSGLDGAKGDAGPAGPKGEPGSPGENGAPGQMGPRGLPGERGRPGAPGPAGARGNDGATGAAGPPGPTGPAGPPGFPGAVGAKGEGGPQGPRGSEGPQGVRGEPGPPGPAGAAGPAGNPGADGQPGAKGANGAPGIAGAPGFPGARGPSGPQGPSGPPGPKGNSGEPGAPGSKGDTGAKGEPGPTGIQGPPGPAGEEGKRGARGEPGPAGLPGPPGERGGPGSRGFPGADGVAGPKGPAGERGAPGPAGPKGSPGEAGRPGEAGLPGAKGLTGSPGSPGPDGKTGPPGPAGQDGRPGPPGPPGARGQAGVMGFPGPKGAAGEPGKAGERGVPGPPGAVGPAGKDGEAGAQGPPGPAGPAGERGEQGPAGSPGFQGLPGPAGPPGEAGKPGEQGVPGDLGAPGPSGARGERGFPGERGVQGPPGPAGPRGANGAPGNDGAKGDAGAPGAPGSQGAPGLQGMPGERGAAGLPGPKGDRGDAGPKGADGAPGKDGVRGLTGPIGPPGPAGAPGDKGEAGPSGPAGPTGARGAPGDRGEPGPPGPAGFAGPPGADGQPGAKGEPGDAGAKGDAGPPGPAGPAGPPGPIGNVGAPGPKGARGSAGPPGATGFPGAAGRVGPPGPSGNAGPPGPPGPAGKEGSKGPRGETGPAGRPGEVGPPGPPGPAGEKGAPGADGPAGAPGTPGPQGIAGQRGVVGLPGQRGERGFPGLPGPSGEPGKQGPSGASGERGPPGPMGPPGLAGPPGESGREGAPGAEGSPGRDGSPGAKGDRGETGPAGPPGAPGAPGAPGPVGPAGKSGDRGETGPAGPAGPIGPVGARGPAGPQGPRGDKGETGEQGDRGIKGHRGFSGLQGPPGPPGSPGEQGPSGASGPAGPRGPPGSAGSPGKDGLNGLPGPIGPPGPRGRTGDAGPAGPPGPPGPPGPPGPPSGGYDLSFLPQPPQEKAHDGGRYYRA
Chain of UniProt P02453 (P02465 80-1117, chain 2 of 2, further chain): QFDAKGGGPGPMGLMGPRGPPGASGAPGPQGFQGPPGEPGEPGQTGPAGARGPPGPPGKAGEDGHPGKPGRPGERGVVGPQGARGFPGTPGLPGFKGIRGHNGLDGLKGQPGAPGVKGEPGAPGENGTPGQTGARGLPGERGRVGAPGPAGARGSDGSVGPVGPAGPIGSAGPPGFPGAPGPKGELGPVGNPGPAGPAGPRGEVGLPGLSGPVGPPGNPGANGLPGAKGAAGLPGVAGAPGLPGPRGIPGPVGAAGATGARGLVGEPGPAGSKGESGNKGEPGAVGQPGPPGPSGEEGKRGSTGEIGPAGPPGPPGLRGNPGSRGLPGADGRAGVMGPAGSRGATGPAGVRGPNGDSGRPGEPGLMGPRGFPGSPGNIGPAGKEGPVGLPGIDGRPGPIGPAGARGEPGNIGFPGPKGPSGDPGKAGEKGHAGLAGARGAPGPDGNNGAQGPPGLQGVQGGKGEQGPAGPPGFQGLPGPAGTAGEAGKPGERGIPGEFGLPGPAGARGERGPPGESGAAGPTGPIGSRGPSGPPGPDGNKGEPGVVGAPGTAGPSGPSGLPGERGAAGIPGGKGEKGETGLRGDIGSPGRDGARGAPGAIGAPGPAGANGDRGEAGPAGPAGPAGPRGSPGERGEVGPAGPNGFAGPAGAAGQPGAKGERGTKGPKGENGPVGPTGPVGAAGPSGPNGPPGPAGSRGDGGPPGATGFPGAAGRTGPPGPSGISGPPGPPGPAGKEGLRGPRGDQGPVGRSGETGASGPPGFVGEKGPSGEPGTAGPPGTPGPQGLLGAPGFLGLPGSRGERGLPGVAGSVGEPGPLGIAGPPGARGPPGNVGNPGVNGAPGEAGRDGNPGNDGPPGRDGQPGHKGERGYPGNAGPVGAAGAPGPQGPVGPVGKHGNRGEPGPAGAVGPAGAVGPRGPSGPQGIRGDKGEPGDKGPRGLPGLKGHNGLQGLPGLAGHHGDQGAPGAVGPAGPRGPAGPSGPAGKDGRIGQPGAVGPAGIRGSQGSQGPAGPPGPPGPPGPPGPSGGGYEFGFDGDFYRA

B1: Fc-GPVI-nt (Fc fusion)
chain: QSGPLPKPSLQALPSSLVPLEKPVTLRCQGPPGVDLYRLEKLSSSRYQDQAVLFIPAMKRSLAGRYRCSYQNGSLWSLPSDQLELVATGVFAKPSLSAQPGPAVSSGGDVTLQCQTRYGFDQFALYKEGDPAPYKNPERWYRASFPIITVTAAHSGTYRCYSFSSRDPYLWSAPSDPLELVVTGTSVTPSRLPTEPPSSVAEFSEATAELTVSFTNKVFTTETSRSITTSPKESDSPAGPARQYYTKGNGGR[gap - human IgG1 Fc and a few adjoining residues]
notes: The entry starts with the GPVI leader; Disulfide-linked dimer of about 160 kDa; made in HeLa cells (adenovirus) or CHO cells; also called GPVI-Fc; GPVI-Fc-dimer
In the case of B1, the “EC50 (read off the curve)” value is reported as ~1 µg/well.
